Test results taken from the supplement of paper PMC4967469.
pIC50: −log10 of the molar value. By IC50 is meant the dose at which the fit gives 50% viability; where the fit passes the top or lowest dose, that dose stands as a limit. AUC sums up the same curve from the lowest dose to the 256-fold higher top dose; values near 1 show little effect. For some assays here: The top dose, if marked as inferred, is not printed in the source and was worked back from the curve model. For some assays here: Where an entry number is given, a second screen of the drug exists; the two often differ.

Columns and labels:
Assay in all cases: Viability of human cancer cell lines after 72 h of drug (GDSC screen)
CGP-60474 = compound: OCCCNc1cc(-c2ccnc(Nc3cccc(Cl)c3)n2)ccn1 [CGP-60474]; conditions: top dose 0.256 µM; top dose inferred
Description: (§1)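 Human cancer cell lines in 384-well plates, medium with 10% serum, drug for 72 h over a 256-fold dose range (nine 2-fold or five 4-fold steps up to the top dose). Adherent lines were fixed and stained with the nucleic acid dye Syto60, suspension lines read with resazurin; signal relative to control wells, capped at 0 and 100%. One two-parameter sigmoid per drug and line, fitted in a mixed model over all curves with the slope shared within a line.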

YM155 = compound: COCC[n+]1c2c(n(Cc3cnccn3)c1C)C(=O)c1ccccc1C2=O [YM155]; conditions: top dose 5.12 µM
Description: as §1

AMG-706 = compound: CC1(C)CNc2cc(NC(=O)c3cccnc3NCc3ccncc3)ccc21 [AMG-706]; conditions: top dose 2 µM; top dose inferred
Description: as §1

FTI-277 = compound: COC(=O)[C@H](CCSC)NC(=O)c1ccc(NC[C@@H](N)CS)cc1-c1ccccc1 [FTI-277]; conditions: top dose 1.024 µM; top dose inferred
Description: as §1

JNK Inhibitor VIII = compound: CCOc1nc(NC(=O)Cc2cc(OC)ccc2OC)cc(N)c1C#N [JNK Inhibitor VIII]; conditions: top dose 10 µM; top dose inferred
Description: as §1

Belinostat = compound: O=C(/C=C/c1cccc(S(=O)(=O)Nc2ccccc2)c1)NO [Belinostat]; conditions: top dose 20 µM; top dose inferred
Description: as §1

OSI-906 = compound: C[C@]1(O)C[C@@H](c2nc(-c3ccc4ccc(-c5ccccc5)nc4c3)c3c(N)nccn32)C1 [OSI-906]; conditions: top dose 2.56 µM; top dose inferred
Description: as §1

Docetaxel = compound: CC(=O)O[C@@]12CO[C@@H]1C[C@H](O)[C@@]1(C)C(=O)[C@H](O)C3=C(C)[C@@H](OC(=O)[C@H](O)[C@@H](NC(=O)OC(C)(C)C)c4ccccc4)C[C@@](O)([C@@H](OC(=O)c4ccccc4)[C@H]21)C3(C)C [Docetaxel]; conditions: top dose 0.0125 µM
Description: as §1

JNJ-26854165 = compound: c1ccc2c(CCNc3ccc(Nc4ccncc4)cc3)c[nH]c2c1 [JNJ-26854165]; conditions: top dose 10 µM
Description: as §1

Cyclopamine = compound: CC1=C2C[C@H]3[C@@H](CC=C4C[C@@H](O)CC[C@@]43C)[C@@H]2CC[C@]12O[C@@H]1C[C@H](C)CN[C@H]1[C@H]2C [Cyclopamine]; conditions: top dose 16 µM; top dose inferred
Description: as §1

SB-715992 = compound: Cc1ccc(C(=O)N(CCCN)[C@@H](c2nc3cc(Cl)ccc3c(=O)n2Cc2ccccc2)C(C)C)cc1 [SB-715992]; conditions: top dose 0.128 µM; top dose inferred
Description: as §1

JQ1 = compound: Cc1sc2c(c1C)C(c1ccc(Cl)cc1)=N[C@@H](CC(=O)OC(C)(C)C)c1nnc(C)n1-2 [JQ1]
Description: as §1

NSC-207895 = compound: CN1CCN(c2ccc([N+](=O)[O-])c3no[n+]([O-])c23)CC1 [NSC-207895]; conditions: top dose 20 µM; top dose inferred
Description: as §1

[1] = top dose 1 µM, screen: GDSC drug entry 1218, top dose inferred
[2] = top dose 2.56 µM, screen: GDSC drug entry 163

Cell Line	AUC (CGP-60474)	pIC50 (CGP-60474)	AUC (YM155)	pIC50 (YM155)	AUC (AMG-706)	pIC50 (AMG-706)	AUC (FTI-277)	pIC50 (FTI-277)	AUC (JNK Inhibitor VIII)	pIC50 (JNK Inhibitor VIII)	AUC (Belinostat)	pIC50 (Belinostat)	AUC (OSI-906)	pIC50 (OSI-906)	AUC (Docetaxel)	pIC50 (Docetaxel)	AUC (JNJ-26854165)	pIC50 (JNJ-26854165)	AUC (Cyclopamine)	pIC50 (Cyclopamine)	AUC (SB-715992)	pIC50 (SB-715992)	AUC (JQ1; [1])	pIC50 (JQ1; [1])	AUC (JQ1; [2])	pIC50 (JQ1; [2])	AUC (NSC-207895)	pIC50 (NSC-207895)
BV-173 (chronic myeloid leukaemia, suspension)	0.726	7.19	0.021	> 7.70	0.976	< 5.70	0.983	< 5.99	0.975	< 5.00	0.269	6.52	0.968	< 5.59	0.637	8.75	0.711	5.65	0.945	< 4.80	0.557	7.95	0.735	6.58	0.916	< 5.59	0.605	5.63
CAS-1 (glioma, adherent)	0.937	< 6.59	0.06	> 7.70	0.978	< 5.70	0.96	< 5.99	0.958	< 5.00	0.563	5.70	0.906	< 5.59	0.832	7.91	0.812	5.10	0.963	< 4.80	0.936	< 6.89	0.972	< 6.00	0.626	6.39	0.979	< 4.70
CCRF-CEM (lymphoblastic leukaemia, suspension)	0.684	7.32	0.055	> 7.70	0.977	< 5.70	0.988	< 5.99	0.977	< 5.00	0.142	6.90	0.976	< 5.59	0.776	8.38	0.752	5.55	0.987	< 4.80	0.66	7.69	0.871	6.16	0.601	6.54	0.873	4.85
CESS (acute myeloid leukaemia, suspension)	0.648	7.42	0.061	> 7.70	0.991	< 5.70	0.969	< 5.99	0.99	< 5.00	0.171	6.81	0.945	< 5.59	0.973	< 7.90	0.928	< 5.00	0.953	< 4.80	0.637	7.74	0.904	6.00	0.601	6.54	0.833	4.98
CL-11 (large intestine, adherent)	0.979	< 6.59	0.819	5.47	0.987	< 5.70	0.983	< 5.99	0.978	< 5.00	0.667	5.41	0.983	< 5.59	0.981	< 7.90	0.983	< 5.00	0.985	< 4.80	0.986	< 6.89	0.986	< 6.00	0.965	< 5.59	0.98	< 4.70
COLO-668 (small cell lung carcinoma, adherent)	0.892	< 6.59	0.524	6.43	0.988	< 5.70	0.989	< 5.99	0.989	< 5.00	0.499	5.91	0.731	6.14	0.933	< 7.90	0.933	< 5.00	0.987	< 4.80	0.856	6.99	0.985	< 6.00	0.866	5.64	0.988	< 4.70
CP66-MEL (melanoma, adherent)	0.863	< 6.59	0.273	7.19	0.967	< 5.70	0.981	< 5.99	0.985	< 5.00	0.657	5.44	0.822	5.75	0.906	< 7.90	0.972	< 5.00	0.984	< 4.80	0.946	< 6.89	0.984	< 6.00	0.851	5.62	0.985	< 4.70
CTV-1 (acute myeloid leukaemia, suspension)	0.646	7.43	0.019	> 7.70	0.991	< 5.70	0.991	< 5.99	0.992	< 5.00	0.34	6.30	0.979	< 5.59	0.897	8.00	0.773	5.50	0.89	4.92	0.471	8.17	0.992	< 6.00	0.775	6.09	0.953	< 4.70
OCI-AML3 (acute myeloid leukaemia, suspension)	0.776	7.06	0.047	> 7.70	0.991	< 5.70	0.99	< 5.99	0.991	< 5.00	0.359	6.27	0.991	< 5.59	0.906	< 7.90	0.984	< 5.00	0.991	< 4.80	0.563	7.94					0.936	< 4.70
